Laboratory results reported in EPA's CvTdb concentration-time database.
The source gives many values for each of these; only a part stands here.

Assays:
Experiment in all cases: concentration in plasma after dosing
Rat [1] = settings: dosed: Perfluorodecanoic acid, 10 mg/kg, oral, Female, Harlan Sprague Dawley
Rat [2] = settings: dosed: Perfluorodecanoic acid, 10 mg/kg, oral, Male, Harlan Sprague Dawley
Rat [3] = settings: oral
Rat [4] = settings: dosed: Perfluorodecanoic acid, 2 mg/kg, oral, Male, Harlan Sprague Dawley
Rat [5] = settings: dosed: Perfluorodecanoic acid, 20 mg/kg, oral, Female, Harlan Sprague Dawley
Rat [6] = settings: dosed: Perfluorodecanoic acid, 10 mg/kg, oral, Male, Harlan Sprague Dawley; remark: listed apart in the source
Rat [7] = settings: dosed: Perfluorodecanoic acid, 10 mg/kg, oral, Female, Harlan Sprague Dawley; remark: listed apart in the source
Rat [8] = settings: 3360 h; dosed: Perfluorooctane Sulfonate; 20 mg/kg; oral; Male; Harlan Sprague Dawley

O=C(O)C(F)(F)C(F)(F)C(F)(F)C(F)(F)C(F)(F)C(F)(F)C(F)(F)C(F)(F)C(F)(F)F [Perfluorodecanoic acid]
Settings	concentration in plasma [ng/mL]
Rat [1], 2 h	29900
Rat [1], 528 h	23200
Rat [1], 2520 h	7240
Rat [2], 0.5 h	13000
Rat [2], 192 h	23500
Rat [2], 1848 h	5080
Rat [4], 6 h	6590
Rat [4], 864 h	1670
Rat [5], 2 h	65200
Rat [5], 528 h	42200
Rat [5], 3360 h	3630
Rat [6], 2 h	22400
Rat [6], 528 h	13500
Rat [6], 2520 h	3880
Rat [7], 2 h	30500
Rat [7], 528 h	23900
Rat [7], 2520 h	5960

concentration in plasma [ng/mL], Rat [3], dosed: Perfluorodecanoic acid
Settings	2 mg/kg	10 mg/kg	20 mg/kg
0.5 h, Female, Harlan Sprague Dawley	–	11800	24500
0.5 h, Male, Harlan Sprague Dawley	3030	9800	10800
1 h, Female, Harlan Sprague Dawley	–	34700	44500
1 h, Male, Harlan Sprague Dawley	5420	23100	29200
2 h, Female, Harlan Sprague Dawley	–	34700	80500
2 h, Male, Harlan Sprague Dawley	5620	24100	50000
6 h, Female, Harlan Sprague Dawley	9950	43000	94100
6 h, Male, Harlan Sprague Dawley	6240	37300	77400
12 h, Female, Harlan Sprague Dawley	–	50600	107000
12 h, Male, Harlan Sprague Dawley	10500	41500	80100
24 h, Female, Harlan Sprague Dawley	–	59700	142000
24 h, Male, Harlan Sprague Dawley	9900	36700	71600
24 h, Male, Harlan Sprague Dawley - this seems too small	–	39200	–
192 h, Female, Harlan Sprague Dawley	–	52800	83300
192 h, Male, Harlan Sprague Dawley	9630	27200	43600
528 h, Female, Harlan Sprague Dawley	–	24200	40700
528 h, Male, Harlan Sprague Dawley	2530	11900	29300
864 h, Female, Harlan Sprague Dawley	3060	15700	32200
864 h, Male, Harlan Sprague Dawley	1420	11700	19700
1200 h, Female, Harlan Sprague Dawley	–	11700	27200
1200 h, Male, Harlan Sprague Dawley	3040	5210	18600
1848 h, Female, Harlan Sprague Dawley	–	6640	15000
1848 h, Male, Harlan Sprague Dawley	1860	5370	7410
2520 h, Female, Harlan Sprague Dawley	–	5900	14800
2520 h, Male, Harlan Sprague Dawley	843	1840	6590
3360 h, Female, Harlan Sprague Dawley	–	2650	7640
3360 h, Male, Harlan Sprague Dawley	517	1890	4530

O=S(=O)([O-])C(F)(F)C(F)(F)C(F)(F)C(F)(F)C(F)(F)C(F)(F)C(F)(F)C(F)(F)F [Perfluorooctane Sulfonate]
Settings	concentration in plasma [ng/mL]
Rat [8]	6170

concentration in plasma [ng/mL], Rat [3], dosed: Perfluorooctane Sulfonate
Settings	Female	Male
1 h, 2 mg/kg, Harlan Sprague Dawley	1970	–
1 h, 20 mg/kg, F344	39400	31500
1 h, 20 mg/kg, Harlan Sprague Dawley	–	34100
5 min, 20 mg/kg, F344	254	–
6 h, 2 mg/kg, Harlan Sprague Dawley	6520	–
6 h, 20 mg/kg, F344	91600	–
6 h, 20 mg/kg, Harlan Sprague Dawley	–	82100
12 h, 2 mg/kg, Harlan Sprague Dawley	6170	–
12 h, 20 mg/kg, F344	110000	98000
24 h, 2 mg/kg, Harlan Sprague Dawley	7650	–
24 h, 20 mg/kg, F344	119000	–
24 h, 20 mg/kg, Harlan Sprague Dawley	–	85500
192 h, 2 mg/kg, Harlan Sprague Dawley	3550	–
192 h, 20 mg/kg, Harlan Sprague Dawley	–	66400
528 h, 2 mg/kg, Harlan Sprague Dawley	4900	–
528 h, 20 mg/kg, F344	69200	35600
864 h, 2 mg/kg, Harlan Sprague Dawley	2890	–
864 h, 20 mg/kg, F344	42900	–
864 h, 20 mg/kg, Harlan Sprague Dawley	–	26900
1200 h, 20 mg/kg, F344	24500	19700
1848 h, 2 mg/kg, Harlan Sprague Dawley	1790	–
1848 h, 20 mg/kg, F344	14600	–
1848 h, 20 mg/kg, Harlan Sprague Dawley	–	13300
2520 h, 2 mg/kg, Harlan Sprague Dawley	313	–
2520 h, 20 mg/kg, Harlan Sprague Dawley	–	6880
3360 h, 2 mg/kg, Harlan Sprague Dawley	633	–
3360 h, 20 mg/kg, Harlan Sprague Dawley	–	3020
